Experimental data as given in PubChem BioAssay AID624296 (National Center for Advancing Translational Sciences (NCATS), 2012).
Screen size: about 350,000 compounds; about 9,900 (2.8%) were called active. The inconclusive results got no clear call from the source; some entries with a clear call stand among them for comparison. Calls follow the shape of the dose curve; as a rule, active = well fitted activation curve with a large enough effect; inconclusive = small, poorly fitted or top-dose-only effect; inactive = no such curve, though single readings can be large or run the other way. No potency is given beside an inconclusive call; the fits are too rough. Some compounds were tested as several samples or in several runs, with calls that do not always agree.

Test: A quantitative high throughput screen for small molecules that induce DNA re-replication in MCF 10a normal breast cells. Also: nearly all actives have a fitted effect of over 50% in size. As to activity, positive = re-replication: % of control where 0% means no effect.
Conditions: MCF 10A DNA re-replication, Hoechst nuclear intensity, 48 h; activity, positive = re-replication: at 46.1 µM (top of the series)
Potency is read from the fitted curve at half-maximal effect; tags tell the direction and shape of the fitted curve.

Row | Structure (SMILES) | activity, positive = re-replication | Potency
1 | Cc1ccc(N(CC(O)CN2CCCCC2)S(=O)(=O)c2ccccc2)cc1 (centres undefined) | inactive: 1.5% | –
2 | Cc1cccc(C)c1NC(=S)N/N=C/c1c(Cl)cccc1Cl | inactive: 14.9% | –
3 | CCOC(=O)C1=C(c2ccccc2)NC(=S)NC1c1cccc([N+](=O)[O-])c1 (centres undefined) | inactive: 11.1% | –
4 | COc1cccc(Sc2cc(N3CCOCC3)nc(-c3ccccc3)n2)c1 | – | inconclusive [activator, partial curve, poor fit]
5 | Cc1[nH]c2ccccc2c1/C=N/NC(=O)c1cccc(F)c1 | – | inconclusive [activator, partial curve, poor fit]
6 | CCOc1ccccc1OCCCC(=O)NNC(=O)c1cc(C)oc1C | inactive: 3.4% | –
7 | O=C(CC(c1ccccc1)c1ccccc1)Nc1ccc2c(c1)OCCO2 | – | inconclusive [activator, single point]
8 | COc1ccc(CCNC(=O)c2cccc(C(=O)NCCc3ccc(OC)cc3)n2)cc1 | inactive: 13.1% | –
9 | CCCC[C@@H]1C=C(C(=O)O)[C@H](c2ccc(Cl)c(Cl)c2)N1S(=O)(=O)c1ccc(C)cc1 | – | inconclusive [activator, single point]
10 | CCN1CCc2c(sc(NC(=O)c3ccc(S(=O)(=O)N4CCOCC4)cc3)c2C(=O)OC)C1 | – | active: 14.6 µM
11 | CC(/C=C/c1ccc2c(c1)OCO2)=N/NC(=O)CNc1ccc(C)cc1 | – | inconclusive [activator, full curve]
12 | COc1ccc(C(=O)NC2(C(F)(F)F)NC(=O)N(CCCc3ccccc3)C2=O)c(OC)c1OC (centres undefined) | – | inconclusive [activator, partial curve, poor fit]
13 | Nc1nc(NCCOCCO)nc(NCc2ccccc2)c1[N+](=O)[O-] | inactive: 1.46% | –
14 | CCOC(=O)c1c(NC(=O)c2ccccc2C(=O)O)sc2c1CCCC2 | inactive: 14.3% | –
15 | CCOc1ccc2[nH]c(=O)c(CN(Cc3cccs3)C(CC)c3nnnn3C(C)(C)CC)cc2c1 (centres undefined) | – | inconclusive [activator, single point]
16 | Cc1ccc(-c2noc(CSc3nnc(Cc4cccs4)n3-c3ccccc3)n2)cc1 | – | inconclusive [activator, single point]
17 | O=C(CN1C(=O)C(=O)N(C2CCCC2)C1=O)NCCc1ccc(Cl)cc1Cl | inactive: -1.18% | –
18 | COc1ccc(Oc2c(Cl)cnn(-c3ccccc3)c2=O)cc1 | – | inconclusive [activator, single point]
19 | CN1CCN(C(=O)CCn2c(=O)c3cccn3c3cccnc32)CC1 | inactive: 4.74% | –
20 | O=C(CCCCC(=O)Nc1c(I)cc(I)c(C(=O)O)c1I)Nc1c(I)cc(I)c(C(=O)O)c1I | inactive: 0.195% | –
21 | O=C(NCc1ccccc1)c1csc2c1CCCCC2 | – | inconclusive [activator, partial curve, poor fit]
22 | COc1cccc(/C=C/C(=C2/C(=O)N(c3ccccc3)N=C2C)c2ccccc2)c1OC | inactive: 1% | –
23 | CCOc1ccc2nc(N/C(N)=N/S(C)(=O)=O)nc(C)c2c1 | inactive: 13.9% | –
24 | O=C(CN1CCN(S(=O)(=O)N2CCCCC2)CC1)Nc1cc(Cl)ccc1Cl | – | inconclusive [activator, single point]
25 | CCOc1ccc(NC(=O)CSC2=NCCN2)cc1 | inactive: 7.67% | –

Row | Structure (SMILES) | activity, positive = re-replication | Potency
26 | O=C(O)c1cc(S(=O)(=O)N(Cc2ccccc2)c2ccc(Cl)cc2)ccc1Cl | – | active: 20.6 µM
27 | CC(C)NC(=O)c1ccc(COc2ccc(C(C)(C)C)cc2)o1 | – | inconclusive [activator, single point]
28 | CCc1nc2ccccc2c(C(=O)OCC(=O)NCCCN2CCCC2=O)c1C | inactive: -3.1% | –
29 | Cc1cc(N2C(=O)C(O)=C(C(=O)c3ccc(C)o3)C2c2ccc(OCc3ccccc3)cc2)no1 (centres undefined) | – | active: 20.6 µM
30 | O=C1C(F)=CC(COC(c2ccccc2)(c2ccccc2)c2ccccc2)OC1n1cc(F)c(=O)[nH]c1=O (centres undefined) | – | active: 2.59 µM
31 | COc1cc(C(=O)N/N=C(\C)c2ccc(NC(=O)Cc3ccccc3)cc2)ccc1O | inactive: -0.787% | –
32 | COc1ccc(NC(=O)COC(=O)c2ccc3ccccc3n2)cc1 | – | inconclusive [activator, partial curve, poor fit]
33 | O=[N+]([O-])c1ccc(Cl)c(/C=N/n2c(-c3ccncc3)n[nH]c2=S)c1 | – | inconclusive [activator, single point]
34 | CCOC(=O)N1CCN(c2cc(=O)n(-c3ccc(C)cc3)c(=O)[nH]2)CC1 | inactive: -4.27% | –
35 | O=Cc1ccccc1OCc1ccc2c(c1)OCO2 | – | inconclusive [activator, single point]
36 | O=c1c2ccccc2nc(-c2ccco2)n1Cc1ccccc1 | – | inconclusive [activator, full curve, poor fit]
37 | COc1ccc(CN2CCNC(=O)C2CC(=O)NC2CCCC2)c(C)c1C (centres undefined) | – | inconclusive [activator, single point]
38 | CC(=O)Nc1ccc(-n2c(C)ccc2-c2ccccc2)cc1 | – | inconclusive [activator, single point]
39 | COc1ccc(C(=O)/C=C/Nc2cc(C)on2)c(OC)c1 | – | inconclusive [activator, single point]
40 | O=C(Nc1cccc(Cl)c1)c1ccc(F)c(S(=O)(=O)N2CCN(c3ccccn3)CC2)c1 | – | active: 23.1 µM
41 | Cc1ccc(OCC(=O)Nc2ccc3oc(=O)ccc3c2)c(C)c1 | inactive: 4.68% | –
42 | Cc1cccn2c(=O)c(/C=C(\C#N)C(=O)NCc3ccco3)c(N3CCCCCC3)nc12 | inactive: -1.72% | –
43 | COc1ccc(/C=C/C(=O)Nc2sc(Cc3ccccc3)c(C)c2C(N)=O)cc1 | – | inconclusive [activator, partial curve, poor fit]
44 | Cc1cc(C)n(-c2nc(NCCCN(C)C)c3c4c(sc3n2)COC(C)(C)C4)n1 | inactive: 2.09% | –
45 | CSc1nc(-c2ccc(Cl)cc2Cl)[nH]c(=O)c1C#N | – | inconclusive [activator, single point]
46 | COc1ccc(-c2c(C)c3ccc(O)cc3oc2=O)cc1OC | – | inconclusive [activator, single point]
47 | O=C(NC(=S)Nc1ncc(Br)cc1Br)c1cncc(Br)c1 | inactive: -4.86% | –
48 | Nc1ccc2nc3c(=O)[nH]c(=S)[nH]c3nc2c1 | – | inconclusive [activator, single point]
49 | CC(C)CC1NC(=O)N(CC(=O)Nc2cccc(Br)c2)C1=O (centres undefined) | inactive: 20.6% | –
50 | O=C(N/N=C/c1ccco1)c1cc(-c2cccc3ccccc23)n[nH]1 | – | inconclusive [activator, full curve]

Row | Structure (SMILES) | activity, positive = re-replication | Potency
51 | COc1ccc(-c2csc(NC(=O)COC(=O)c3ccc(Br)o3)n2)cc1 | inactive: 0.665% | –
52 | O=C(CCl)Nc1ccc2c(c1)OCO2 | inactive: 93.5% | –
53 | CCOc1ccc(N(CC(=O)NC2CCCCC2)S(=O)(=O)c2ccc(C)cc2)cc1 | – | inconclusive [activator, single point]
54 | Cc1ccc(Cn2c(=N)c(C(=O)NC3CCCC3)cc3c(=O)n4ccccc4nc32)cc1 | – | inconclusive [activator, full curve, poor fit]
55 | Nn1c(SCC(=O)NC2CCCCC2)nnc1-c1ccccc1F | inactive: -4.07% | –
56 | Cc1ccc(-c2ccc(/C=C/C(=O)c3ccccc3)o2)cc1 | – | inconclusive [activator, single point]
57 | O=[N+]([O-])c1cc(S(=O)(=O)NCCCN2CCOCC2)ccc1Cl | – | active: 16.4 µM
58 | Cc1ccc(C)c(NS(=O)(=O)c2cc(C(=O)NCCSC3CCCCC3)ccc2C)c1 | – | inconclusive [activator, partial curve, poor fit]
59 | CN(C)CCN(C(=O)c1ccc2c(c1)OCCO2)c1nc2ccc(Cl)cc2s1 | inactive: 1.25% | –
60 | C#CC1(NC(=O)NS(=O)(=O)c2ccc(C)cc2)CCCCC1 | – | inconclusive [activator, single point]
61 | CN(C)c1nc(SCCOC(=O)Nc2ccccc2)nc(N(C)C)n1 | inactive: 0.966% | –
62 | N#C/C(C(=O)NCc1ccco1)=C1/SC=C(c2ccccc2)N1c1ccccc1 | inconclusive: 12% [activator] | –
63 | C=CCc1cccc(CNc2nc3ccccc3n2CCN2CCOCC2)c1O | – | inconclusive [activator, partial curve, poor fit]
64 | COc1ccc(CCn2c(-n3nc(C)cc3C)nc3c2c(=O)[nH]c(=O)n3C)cc1 | – | active: 1.64 µM
65 | COc1cc(NC(=O)CN2CCCCC2C)c(C)cc1[N+](=O)[O-] (centres undefined) | – | inconclusive [activator, partial curve, poor fit]
66 | CCOc1c2ccc(C(=O)N[C@H](C)C3CCCCC3)cc2nn1CC | – | inconclusive [activator, full curve, poor fit]
67 | Cc1ccccc1/C=N/n1c(C2CCCCC2)n[nH]c1=S | – | inconclusive [activator, single point]
68 | Cc1ccccc1N(C(=O)c1cccs1)c1nc2ccccc2s1 | – | inconclusive [activator, partial curve, poor fit]
69 | O=C(CSc1nc(-c2ccc(F)cc2)cc(C(F)(F)F)n1)NCc1ccco1 | – | inconclusive [activator, single point]
70 | CC/C(=N\N=C(/CC)c1ccccc1N)c1ccccc1N | inactive: 7.08% | –
71 | Cc1nc2c(-c3ccc(Cl)cc3)cnn2c(N)c1-c1ccc(F)cc1 | inactive: -1.12% | –
72 | Cc1ccc(/C=N/NC(=O)CN2CCN(S(=O)(=O)c3ccc(Br)cc3)CC2)s1 | inactive: 3.19% | –
73 | O=C(c1ccc2c(c1)OCCO2)N1CCN(c2ncc(C(F)(F)F)cc2Cl)CC1 | inactive: 14.4% | –
74 | O=C(c1ccco1)N(CC1CCCO1)c1nc(-c2ccccc2)cs1 (centres undefined) | – | inconclusive [activator, single point]
